Reference: the supplement of paper PMC3334620
Whole data set: some 33,000 sequences, median “E-score (-0.5 to 0.5)” near -0.012, cut for the highest 2% near 0.29. Some of the results follow.

Each sequence was assayed against T1, Ybr033w (UniProt P38073) (assay: PBM E-score (8-mer binding enrichment) (E-score (-0.5 to 0.5)); higher = stronger / more preferred TF binding; most listed sequences are background and not binding sites). Settings: protein concentration: 200 nM; construct: GST-full length.
T1 sequence: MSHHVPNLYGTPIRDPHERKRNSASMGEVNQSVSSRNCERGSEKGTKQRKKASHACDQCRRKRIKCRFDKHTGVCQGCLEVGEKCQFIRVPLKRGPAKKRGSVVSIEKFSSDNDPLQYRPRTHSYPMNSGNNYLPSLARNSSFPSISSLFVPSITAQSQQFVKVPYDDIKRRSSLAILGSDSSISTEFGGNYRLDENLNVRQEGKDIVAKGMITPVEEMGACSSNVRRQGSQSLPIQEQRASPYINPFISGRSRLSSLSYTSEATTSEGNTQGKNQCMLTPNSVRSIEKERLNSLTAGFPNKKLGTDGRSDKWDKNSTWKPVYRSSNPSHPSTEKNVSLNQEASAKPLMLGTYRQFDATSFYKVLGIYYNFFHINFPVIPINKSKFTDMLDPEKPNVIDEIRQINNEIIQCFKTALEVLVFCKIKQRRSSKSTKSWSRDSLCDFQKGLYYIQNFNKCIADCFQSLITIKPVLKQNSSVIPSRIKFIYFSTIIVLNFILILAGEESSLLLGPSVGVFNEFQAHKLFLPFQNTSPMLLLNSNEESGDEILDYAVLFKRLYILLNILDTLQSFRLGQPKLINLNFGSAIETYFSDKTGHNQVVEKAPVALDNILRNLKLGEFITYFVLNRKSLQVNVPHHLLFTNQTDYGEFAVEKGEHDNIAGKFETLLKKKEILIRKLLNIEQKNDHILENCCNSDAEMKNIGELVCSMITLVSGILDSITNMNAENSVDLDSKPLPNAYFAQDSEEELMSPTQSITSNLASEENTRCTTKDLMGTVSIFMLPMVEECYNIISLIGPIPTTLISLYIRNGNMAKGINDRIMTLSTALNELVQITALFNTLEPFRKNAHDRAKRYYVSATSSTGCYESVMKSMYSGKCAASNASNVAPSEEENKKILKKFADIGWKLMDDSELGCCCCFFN
In short: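 Using PURExpress in vitro transcription/translation, GST-tagged yeast transcription factors were made in full-length or DNA-binding-domain form. These were applied at about 100-200 nM to double-stranded universal all-10-mer Agilent arrays, and bound protein was detected with fluorescent anti-GST. Scans were normalised with masliner before the Universal PBM Analysis Suite assigned E-scores to ungapped eight-base words pooled with their reverse complements.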

Row | Sequence | PBM E-score
1 | GCATGTAC | -0.156
2 | GGTGAGCA | -0.113
3 | CATAGCAA | 0.0792
4 | CCTTACTC | 0.138
5 | AGGCGGAT | 0.036
6 | GCGGTGGA | 0.00804
7 | CACTTCTC | -0.16
8 | ATTGCGAC | 0.0532
9 | CGGCTGAG | -0.284
10 | CTCCCGAG | -0.207
11 | AGCTTATC | -0.0268
12 | CGAGTGCA | 0.0861
13 | AGAAGCAT | 0.141
14 | AATACCTA | 0.189
15 | TCAAGAAA | 0.291
16 | CGTAATGC | -0.052
17 | CGCTACAG | -0.122
18 | AAAGCGAT | 0.212
19 | ATGCTACC | 0.0362
20 | TCCGGTAA | 0.0264
21 | GAGAAAAA | 0.155
22 | CACCAAGG | -0.0794
23 | CAAGACGC | -0.0286
24 | ATTCGATA | 0.243
25 | AGGAAAAA | 0.431

Row | Sequence | PBM E-score
26 | ACCCTAAA | 0.0972
27 | TATTAGAA | 0.259
28 | GCCGCAAA | 0.0878
29 | GTATACTA | -0.0742
30 | ACCATGGG | -0.191
31 | GCAGGTAC | -0.145
32 | CCCATGGG | 0.0663
33 | CAGACGTC | -0.203
34 | CAGAAATC | 0.144
35 | CGCGAATA | 0.0756
36 | ACCCACAG | -0.0895
37 | CGATTTTA | 0.0786
38 | CCGTGAAC | -0.103
39 | ACGATTTC | 0.0795
40 | AGATCGAT | -0.00686
41 | AGAAAATC | 0.232
42 | CAGCGGGA | -0.263
43 | AGTCTCTG | -0.0621
44 | ATCAAGTC | 0.161
45 | ACACACCG | -0.12
46 | ACGATCTC | -0.153
47 | ATACGGAC | -0.119
48 | AAGAAAAC | 0.125
49 | ATATCGAA | 0.219
50 | CCTGGTTC | -0.0996

Row | Sequence | PBM E-score
51 | CTATGTCC | -0.12
52 | AAGGTTCT | 0.091
53 | GAGCGCCA | -0.238
54 | CGTTTAGA | 0.0439
55 | CACCGCAG | 0.0948
56 | ACTCCATA | -0.0391
57 | CGTCGACC | -0.0768
58 | ATAGCCGC | -0.16
59 | ACGGCGCG | 0.0984
60 | CACGTTGG | -0.00164
61 | GTAGCAAC | 0.0603
62 | AACAGGCA | -0.0929
63 | CTTACACA | 0.00885
64 | GTCACCCA | -0.125
65 | GTCCACAC | 0.0487
66 | CTGGAATA | 0.355
67 | ACTGAGTA | 0.047
68 | GATATATC | 0.226
69 | AAGACCAG | -0.0673
70 | AACTACGC | 0.07
71 | GCTCGGAC | -0.182
72 | ATTCTTGC | 0.118
73 | CGTCTGCC | -0.275
74 | ATAATGCA | 0.106
75 | AATCCCGA | 0.193

Row | Sequence | PBM E-score
76 | ATAGTTCA | 0.202
77 | ACATTTCA | 0.132
78 | GCCGGAAC | 0.205
79 | AGTTGCAT | 0.103
80 | ACACCCGG | -0.229
81 | CGTGGAAA | 0.182
82 | ACAGCAAA | 0.125
83 | ACATACAT | 0.226
84 | CTTGCTCA | -0.167
85 | AATATGGG | 0.0909
86 | AGAGCATA | -0.0305
87 | CGCAGCAC | -0.115
88 | CCCGCATC | -0.218
89 | GATCCGCA | -0.0555
90 | CCTGACAA | -0.11
91 | CGAACGAC | -0.0176
92 | CCAGGGTC | -0.186
93 | TACGGCAA | -0.118
94 | AGGCTGTC | -0.166
95 | AAGCGATT | 0.131
96 | GAATGGTC | -0.104
97 | ACAATGGT | -0.0786
98 | CCATAGTC | 0.0428
99 | ACCTGTAC | -0.0813
100 | ATTCCAGG | 0.139

Row | Sequence | PBM E-score
101 | AACCCCAA | 0.0403
102 | GATAAGTA | 0.205
103 | AGACCTCG | 0.105
104 | CCCGTCCA | -0.158
105 | CGAGATCA | 0.0446
106 | CATTGCCA | 0.041
107 | CCACTCCA | 0.0647
108 | CCGCGTGA | -0.04
109 | CTTCGGGA | 0.0436
110 | AGCCGACG | -0.209
111 | TCAAGCAA | 0.00033
112 | AGTACCTG | 0.0961
113 | CCATTCTA | 0.0369
114 | ACTTCGTG | 0.014
115 | AGCTACAT | -0.021
116 | ACGCGGCT | -0.0299
117 | TATCGTCA | -0.0459
118 | CGAAAATC | 0.222
119 | ACTTTCAA | 0.137
120 | GTAACCAA | 0.122
121 | GATAAGAC | 0.0888
122 | GACGTAAA | -0.0587
123 | ACACCGGA | -0.0946
124 | GCCTGCGC | -0.358
125 | GCTGCGTA | -0.091

Row | Sequence | PBM E-score
126 | GCGCGGAA | 0.0282
127 | CAGGTGTA | 7e-05
128 | GAGACGCA | -0.0768
129 | GTCCAATA | -0.00812
130 | GAAGGGCC | -0.351
131 | CAGTGAAC | 0.0188
132 | CTATAAGC | -0.0362
133 | AAGAAAAT | 0.331
134 | CGCAATCA | 0.0422
135 | CAGGTACG | -0.247
136 | ATGGCTAC | -0.0319
137 | CAAGCGTC | -0.0144
138 | AGGCGGGA | -0.117
139 | CATGCGGG | -0.212
140 | GAGACATC | -0.142
141 | GACTACTA | 0.122
142 | ACTGTAAG | 0.0768
143 | ACTTAAAT | 0.212
144 | CGCCCACC | -0.176
145 | TCGTAGCA | 0.0654
146 | GTGTTAAC | 0.122
147 | TATAGTGA | 0.144
148 | GGAGAGAC | -0.0678
149 | ATAAAGAT | 0.212
150 | GCCCTACA | -0.0157

Row | Sequence | PBM E-score
151 | ACTTAGAC | 0.131
152 | AGCTTGTA | 0.156
153 | ATGGGAAC | -0.123
154 | ATTCCGAA | 0.32
155 | CCCTATCG | -0.263
156 | ACTTAGTC | 0.0758
157 | CACGGAAC | 0.114
158 | GCATCTAA | 0.0869
159 | CGTATAGA | 0.00324
160 | AGAAAGGC | -0.0858
161 | TCTAGCAA | 0.14
162 | CGTCCTTC | -0.0261
163 | GGACACAA | 0.163
164 | CAGTCGCG | -0.189
165 | ATAGCGGG | -0.124
166 | CCTACCAC | -0.155
167 | CATCATAG | 0.087
168 | ACGCAGTA | 0.0216
169 | CTCTGCTA | -0.239
170 | CCGTGAGA | -0.363
171 | GGATGTCA | 0.109
172 | ATGCTCAA | 0.102
